109 molecules from PubChem BioAssay AID1240 (Sanford-Burnham Center for Chemical Genomics, 2008) can be followed below.

Out of some 50,000 compounds screened, about 800 (1.6%) showed an effect of 50% or more. The list shows a part of the results.

The assay concerns the target Bcl-2-like protein 10 (Homo sapiens) (UniProt Q9HD36). Description: TR3 peptide-Bcl-B binding displacers, biochemical primary FP assay, phenotype converters (AID 1240).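 Further: 0% = Bcl-B with tracer peptide and DMSO and 100% = tracer peptide lacking Bcl-B.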 The following applies: GST-Bcl-B / FITC-TR3 peptide fluorescence polarization; stronger effect = higher value; compound at 3.75 mg/L.
Chain of UniProt Q9HD36 (Q9HD36 whole entry, looked up): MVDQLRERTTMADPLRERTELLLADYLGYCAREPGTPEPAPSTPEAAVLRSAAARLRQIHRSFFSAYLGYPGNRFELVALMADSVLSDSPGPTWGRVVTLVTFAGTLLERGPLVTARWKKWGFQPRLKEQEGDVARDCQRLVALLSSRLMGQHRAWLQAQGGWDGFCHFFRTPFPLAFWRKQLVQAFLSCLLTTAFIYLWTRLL
Consider `O=C1C(=O)N(Cc2cccnc2)C(c2ccc(Br)cc2)/C1=C(\O)c1ccccc1` (centres undefined), for which the displacement was -25.2%.

On to `CN1CCN(c2ccc([N+](=O)[O-])c(NCCOc3ccc(Cl)cc3)c2)CC1`, for which the displacement amounted to 3.8%.

With `Cc1sc2nc(-c3cc(Cl)ccc3O)[nH]c(=O)c2c1C`, the displacement is -10.3%.

As for `NC(=O)c1ccc(NC(=O)c2cc(C(F)(F)F)cc(C(F)(F)F)c2)cc1`, the displacement is -19.4%.

Turning to `CC1=CC(C)(C)N(C(=O)NC2CCCCC2)c2cc(C)ccc21`, the displacement is -1%.

`CN1C(=O)C2(NN=C(c3cccc4ccccc34)S2)c2ccccc21` (centres undefined): the displacement came to 15.4%.

Take `Cc1ccc(C)c(NC(=O)c2ccc(OCC(C)C)cc2)c1`: the displacement was determined as 7.8%.

For `CCOC(=O)c1cnc2cc(-c3ccccc3Cl)[nH]n2c1=O`, the displacement is 11.4%.

Turning to `O=C(Nc1cccc(C(F)(F)F)c1)c1ccc(C(=O)c2ccccc2)o1`, the displacement was -9.7%.

Take `COc1cc(OC)c(OC)cc1CNc1cccc(C)c1`: the displacement was 4.3%.

Take `COc1cc(/C=c2/sc3nc4cc(C)c(C)cc4n3c2=O)ccc1OCc1ccccc1`: the displacement worked out at 6.4%.

For `CC1=NN(c2nc(-c3ccc(F)cc3)cs2)C(=O)/C1=C\c1ccc2c(c1)OCO2`, the displacement was -2.6%.

With `COc1ccc(OC)c(/C=C2\C(=O)N(c3cccc(C(=O)O)c3)N=C2C)c1`, the displacement is 2.5%.

On to `O=C1C(=O)N(c2nccs2)C(c2ccc(F)cc2)/C1=C(/O)c1ccc(Cl)cc1` (centres undefined), for which the displacement stood at 8.8%.

On to `NC(=O)c1cccc(N=Cc2c[nH]c3ccccc23)c1`, for which the displacement was -9.1%.

On to `Cc1ccc(N=Cc2c(O)c([N+](=O)[O-])cc3oc4c(c23)CCCC4)cc1C`, for which the displacement is -1.4%.

Regarding `Cc1ccc(OCC(=O)Nc2ccc(F)c([N+](=O)[O-])c2)cc1C`, the displacement is 11.4%.

In the case of `CCOc1ccc(C(=O)Nc2ccc(N3CCOCC3)c(Cl)c2)cc1Cl`, the displacement was 13.8%.

`COc1cc(/C=C2/SC(=S)NC2=O)cc(Cl)c1OCc1ccc(Cl)cc1Cl`: the displacement was found to be 6.6%.

`N/C(=N\OC(=O)Cc1ccccc1)c1ccncc1`: the displacement is -7.8%.

With `CCOC(=O)c1ccc2c(c1)C1C=CCC1C(c1ccc(Cl)cc1)N2` (centres undefined), the displacement is 0.9%.

For the molecule `CC(C)C(=O)N1c2ccccc2C(N(C(=O)C(C)C)c2ccccc2)CC1C` (centres undefined), the displacement was -0.6%.

Take `CCc1cc(C)cc(OCCn2cc(/C=C3/SC(=S)NC3=O)c3ccccc32)c1`: the displacement was 78.8%.

Take `COc1ccc(CNC(=O)Cc2ccc(Cl)cc2)cc1`: the displacement came out at 1.3%.

Take `Nc1nnc(CSCc2ccc(Cl)cc2Cl)s1`: the displacement is 4.5%.

As to `CCOc1cc(/C=C2\C(=O)NC(=O)N(c3ccc(Br)c(C)c3)C2=O)cc(Cl)c1O`, the displacement is -6.8%.

Regarding `CN(C)/N=C\c1ccc(-c2ccc3c(c2)C(=O)NC3=O)o1`, the displacement worked out at 2.8%.

Regarding `O=C(C1=C(O)C(=O)N(c2nncs2)C1c1ccc(F)cc1)c1cccs1` (centres undefined), the displacement amounted to 109%.

Regarding `CCN(CC)S(=O)(=O)c1ccc(NC(=O)c2cccc([N+](=O)[O-])c2)cc1`, the displacement was -2.7%.

Regarding `CCOC(=O)c1c(NC(=O)COc2ccc(Cl)cc2)sc(C(=O)Nc2ccc(OC)cc2OC)c1C`, the displacement turned out to be 5.3%.

For `COc1ccc(NC(=O)c2cccc(I)c2)cc1Cl`, the displacement was found to be 7.8%.

Turning to `CCCOC(=O)c1ccccc1OC(=O)c1ccc([N+](=O)[O-])cc1`, the displacement is -10.2%.

For the molecule `Nn1c(SCC(=O)O)nnc1-c1ccc(Br)cc1`, the displacement was 0.4%.

With `O=C(NN1C(=O)c2ccccc2C1=O)c1ccc(O)cc1`, the displacement stood at 5.9%.

Regarding `C=CCNc1nc2ccccn2c(=O)c1/C=C1\SC(=S)N(CCc2ccccc2)C1=O`, the displacement was -26.4%.

In the case of `CC(C)N1CCc2c(sc3[nH]c(=S)n(-c4ccccc4)c(=O)c23)C1`, the displacement was -14.6%.

Turning to `C(=N\N=C(c1ccccc1)c1ccccc1)/c1cccnc1`, the displacement was -12.3%.

Turning to `CCN(CC)c1ccc(C(=O)N2CCN(c3cccc(Cl)c3)CC2)cc1`, the displacement is -0.6%.

As for `COC(=O)c1c(-c2ccc(Br)cc2)csc1NC(=O)CCCC(=O)O`, the displacement is -1.1%.

In the case of `CCOC(=O)c1ccccc1NC(=O)CN(c1ccc(OC)c(Cl)c1)S(=O)(=O)c1ccccc1`, the displacement came to 12.6%.

On to `CC1=C(C(=O)OCCOc2ccccc2)C(c2ccc(Cl)cc2)C2=C(CC(C)(C)CC2=O)N1` (centres undefined), for which the displacement was 2.5%.

On to `COc1ccc(C(=O)OCC(=O)c2ccc([N+](=O)[O-])cc2)cc1OC`, for which the displacement is -9.8%.

Regarding `CCSc1nnc(NC(=O)c2ccccc2)s1`, the displacement was -2%.

For `O=C(N=Nc1c(O)n(CN2CCCCC2)c2ccc(Br)cc12)c1cccnc1`, the displacement was -14.2%.

Take `Cc1c(Cl)cccc1N=C1NC(=O)/C(=C/c2cccc(O)c2)S1`: the displacement was -14.8%.

For `COc1ccccc1NC(=O)C(=O)NCc1cccnc1`, the displacement was 11.1%.

Regarding `Cc1cc(=O)[nH]c(N/N=C/c2ccc(O)cc2)n1`, the displacement was 3.8%.

Consider `Cc1cccc(C(C)C)c1NC(=O)Nc1ccc(Cl)cc1`, for which the displacement is -1.2%.

`COc1cc(NC(=O)c2ccccc2F)ccc1NC(=O)c1cc2ccccc2o1`: the displacement is 4.5%.

For `CC1CCC(N2CCN(Cc3cccc(Br)c3)CC2)CC1` (centres undefined), the displacement is 1.5%.

For the molecule `CCOC(=O)C1=C(O)/C(=C/c2cccc(O)c2)SC1=Nc1ccccc1`, the displacement was -54.7%.

Consider `CCOc1ccc(N(C)S(=O)(=O)c2ccc(Cl)cc2)cc1`, for which the displacement came out at 3.2%.

With `CCOC(=O)C(=CNc1cccc(Br)c1)C(=O)OCC`, the displacement was 4.8%.

In the case of `COc1ccc(C(=O)CSc2ncn[nH]2)cc1[N+](=O)[O-]`, the displacement came out at 12.8%.

Take `C=CCNC(=O)CN(c1ccc(Oc2ccccc2)cc1)S(C)(=O)=O`: the displacement came to 6.6%.

For the molecule `Cc1ccc2nc(-c3cccc(NC(=S)NC(=O)c4ccco4)c3)oc2c1`, the displacement amounted to 11.6%.

For `O=[N+]([O-])c1cccc2c1NC(c1ccc(F)cc1)C1CC=CC21` (centres undefined), the displacement was 7.1%.

As to `CCOc1ccc(/C=C/C(=O)Nc2cc([N+](=O)[O-])ccc2C)cc1OC`, the displacement was 14.1%.

Turning to `CC1=CC(C)(C)N(C(=O)CSc2nc3ccccc3s2)c2ccccc21`, the displacement was -1.1%.

On to `COc1ccc(CCNC(=O)C(=O)N2CCCCCC2)cc1OC`, for which the displacement is -1.3%.

For `Cc1c(NC(=O)CCN2C(=O)S/C(=C\c3ccc(Cl)cc3)C2=O)c(=O)n(-c2ccccc2)n1C`, the displacement was -2%.

In the case of `COc1cccc2cc(-c3nc(-c4cccc([N+](=O)[O-])c4)cs3)c(=O)oc12`, the displacement was -1.9%.

On to `CCc1c(C)sc(NC(=O)COc2ccccc2)c1C(N)=O`, for which the displacement was found to be 7.7%.

For the molecule `COc1cccc(N/C(=N/S(=O)(=O)c2ccc(C)cc2)Nc2nc(C)cc(C)n2)c1`, the displacement amounted to 13.6%.

As for `NC(=O)CCCN1C(=O)/C(=C/c2ccccc2)SC1=S`, the displacement is 28.9%.

In the case of `O=C(/C=C/Nc1ccc(Br)c(Cl)c1)c1ccccc1`, the displacement is -1.3%.

With `CCOc1cc(/C=C2/C(=O)NC(=O)N(C)C2=O)cc(Cl)c1O`, the displacement was -11.6%.

With `O=C(O)C1CCCCC1C(=O)Nc1nc2ccccc2s1` (centres undefined), the displacement was found to be 2.2%.

As to `COc1ccccc1C1CC(c2ccc(C)cc2)=NN1C(=O)CCC(=O)O` (centres undefined), the displacement stood at 1.6%.

Take `O=C1C2ON(c3ccccc3)C(c3ccccn3)C2C(=O)N1c1ccc(Br)cc1` (centres undefined): the displacement was 5.5%.

Regarding `CC(=O)Nc1ccc(NS(=O)(=O)c2cc(Cl)ccc2Cl)cc1`, the displacement amounted to 10.6%.

`COc1ccc(-c2cc(C(=O)Nc3ncccc3Cl)c3ccccc3n2)cc1OC`: the displacement is -8.7%.

Regarding `Nc1nnnn1CC(=O)OCC(=O)c1ccccc1`, the displacement was 1.1%.

Consider `Cc1ccc([N+](=O)[O-])c2c1NC(c1ccc(Br)cc1)C1CC=CC21` (centres undefined), for which the displacement was found to be 5.2%.

Regarding `O=C(NCCCN1CCOCC1)C(=O)NC1CCCCC1`, the displacement was -9.7%.

Take `CC(=O)C1=C(O)CC(C)(C)CC1=NCc1ccccc1`: the displacement was 3.6%.

On to `O=C(Nc1ccccc1)c1ccc(Cl)c(NC(=O)c2cccs2)c1`, for which the displacement came to 1.2%.

`Cc1ccc(NCN2C(=O)CSC2=O)c(C)c1`: the displacement turned out to be 6.1%.

Regarding `CCOC(=O)CNC1=C([N+](=O)[O-])C(=O)CC(C)(C)C1`, the displacement is -9.2%.

Take `COc1cc(C2C3=C(CC(C)(C)CC3=O)OC3=C2C(=O)CC(C)(C)C3)cc(I)c1O`: the displacement amounted to 9.5%.

Consider `CCn1c2ccccc2c2cc(CN3CCN(S(=O)(=O)c4ccccc4)CC3)ccc21`, for which the displacement is -4.6%.

As for `CC(Oc1cccc(Cl)c1)C(=O)Nc1ccccc1C(=O)N1CCN(Cc2ccccc2)CC1` (centres undefined), the displacement amounted to 16%.

Regarding `Cc1cc(NS(=O)(=O)c2ccccc2[N+](=O)[O-])no1`, the displacement was 0.5%.

As to `C1CCN(c2nc3nonc3nc2N2CCCCC2)CC1`, the displacement was 5.8%.

As for `COc1ccccc1NC(=O)C1=C(C)NC(=S)NC1c1cccc([N+](=O)[O-])c1` (centres undefined), the displacement was -13.4%.

In the case of `Cc1ccc(-c2c(C#N)c(N)nc3c2CCCCC3)s1`, the displacement was -0.7%.

For `COC(=O)CN1C(=O)/C(=C\c2ccc(Br)cc2)SC1=S`, the displacement came to 10.1%.

On to `CCN(CC)CCOc1nnc(-c2ccc(OC)cc2)c2ccccc12`, for which the displacement amounted to 3.5%.

As for `Cc1ccc2nc(NC(=O)CCc3ccccc3)sc2c1`, the displacement is -4.9%.

Consider `Cc1ccc(-c2cc(C(F)(F)F)n3ncc(C(=O)O)c3n2)cc1`, for which the displacement is -1%.

For the molecule `Cc1ccc(-n2[nH]c(C)c(C=NCc3ccncc3)c2=O)cc1`, the displacement is -13.8%.

Turning to `CC(C)COc1cc(=O)[nH]c(SCC(C)C)n1`, the displacement was -4.9%.

Consider `CCC1=NN(C(=O)c2ccccc2O)C(O)(c2ccncc2)C1` (centres undefined), for which the displacement is -10.8%.

For `CC1=CC(C)C2(COC(c3ccc[n+](C)c3)OC2)C(C)C1` (centres undefined), the displacement is -14.6%.

For the molecule `OCC#CC(O)(c1ccc(F)cc1)c1ccc(F)cc1`, the displacement came to 2.4%.

On to `Clc1cccc(OCCCCn2ccnc2)c1`, for which the displacement was determined as 4.2%.

Regarding `CCCCS(=O)CC(O)COc1ccccc1` (centres undefined), the displacement is -10.7%.

In the case of `CCN(CC)CCN1C(=O)c2ccccc2NC1c1ccccc1F` (centres undefined), the displacement is 10.1%.

`O=C(COc1ccc2ccccc2c1)Nc1ccc(S(=O)(=O)N2CCCCCC2)cc1`: the displacement was -0.6%.

`Cc1ccc(C(=O)N/C(=C/c2ccc(Br)cc2)C(=O)NN)cc1`: the displacement was -31.6%.

As for `COc1ccc(N2C(=O)CC(N3CCN(C(c4ccc(F)cc4)c4ccc(F)cc4)CC3)C2=O)cc1` (centres undefined), the displacement is -9.2%.

In the case of `CS(=O)(=O)N1CCN(c2ccc([N+](=O)[O-])cc2Cl)CC1`, the displacement is 1.2%.

For the molecule `COc1ccc(COC(=O)C2=C(C)NC(=O)NC2c2ccc(O)cc2)cc1` (centres undefined), the displacement is -3.4%.

For the molecule `O=C(/C=C/c1ccccc1)Nc1nnc(C2CCCC2)s1`, the displacement turned out to be 13.5%.

For the molecule `COC(=O)C1=C(C)N(C)C(C)=C(C(=O)OC)C1c1cccc(C)c1`, the displacement is -7.2%.

Consider `CCCC1CCc2nc3ccccc3c(C(=O)O)c2C1` (centres undefined), for which the displacement is -10.4%.

`CSc1ccc(/C=C(\NC(=O)c2ccc(C)cc2)C(=O)Nc2cccc(C)c2)cc1`: the displacement was -2.7%.

In the case of `COc1cccc(/C=N/NC(=O)CCNc2n[nH]c(=O)[nH]c2=O)c1OC`, the displacement is -9.5%.

Take `CC(=O)Nc1ccc(NC(=O)c2c(Cl)cccc2Cl)cc1`: the displacement is -2.3%.
